Data from the supplement of paper PMC3334620.
Over roughly 33,000 sequences, “E-score (-0.5 to 0.5)” has its median near -0.053; the highest 2% begin near 0.37. Some of the results follow.

Biological target: Hap1 (UniProt P0CE41)
Assay: PBM E-score (8-mer binding enrichment) (E-score (-0.5 to 0.5)); higher = stronger / more preferred TF binding; most listed sequences are background and not binding sites
Details: protein concentration: 200 nM; construct: GST-DNA-binding domain
Procedure, shortened: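 The E-score, a modified Wilcoxon-Mann-Whitney statistic, was computed by the Universal PBM Analysis Suite for every ungapped eight-base word pooled with its reverse complement. Scans behind it were normalised with masliner after bound GST-tagged yeast transcription factors were detected with fluorescent anti-GST. The proteins, at about 100-200 nM, had been applied to universal all-10-mer Agilent arrays made double-stranded by primer extension.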

Sequence of UniProt P0CE41 (P0CE41 whole entry): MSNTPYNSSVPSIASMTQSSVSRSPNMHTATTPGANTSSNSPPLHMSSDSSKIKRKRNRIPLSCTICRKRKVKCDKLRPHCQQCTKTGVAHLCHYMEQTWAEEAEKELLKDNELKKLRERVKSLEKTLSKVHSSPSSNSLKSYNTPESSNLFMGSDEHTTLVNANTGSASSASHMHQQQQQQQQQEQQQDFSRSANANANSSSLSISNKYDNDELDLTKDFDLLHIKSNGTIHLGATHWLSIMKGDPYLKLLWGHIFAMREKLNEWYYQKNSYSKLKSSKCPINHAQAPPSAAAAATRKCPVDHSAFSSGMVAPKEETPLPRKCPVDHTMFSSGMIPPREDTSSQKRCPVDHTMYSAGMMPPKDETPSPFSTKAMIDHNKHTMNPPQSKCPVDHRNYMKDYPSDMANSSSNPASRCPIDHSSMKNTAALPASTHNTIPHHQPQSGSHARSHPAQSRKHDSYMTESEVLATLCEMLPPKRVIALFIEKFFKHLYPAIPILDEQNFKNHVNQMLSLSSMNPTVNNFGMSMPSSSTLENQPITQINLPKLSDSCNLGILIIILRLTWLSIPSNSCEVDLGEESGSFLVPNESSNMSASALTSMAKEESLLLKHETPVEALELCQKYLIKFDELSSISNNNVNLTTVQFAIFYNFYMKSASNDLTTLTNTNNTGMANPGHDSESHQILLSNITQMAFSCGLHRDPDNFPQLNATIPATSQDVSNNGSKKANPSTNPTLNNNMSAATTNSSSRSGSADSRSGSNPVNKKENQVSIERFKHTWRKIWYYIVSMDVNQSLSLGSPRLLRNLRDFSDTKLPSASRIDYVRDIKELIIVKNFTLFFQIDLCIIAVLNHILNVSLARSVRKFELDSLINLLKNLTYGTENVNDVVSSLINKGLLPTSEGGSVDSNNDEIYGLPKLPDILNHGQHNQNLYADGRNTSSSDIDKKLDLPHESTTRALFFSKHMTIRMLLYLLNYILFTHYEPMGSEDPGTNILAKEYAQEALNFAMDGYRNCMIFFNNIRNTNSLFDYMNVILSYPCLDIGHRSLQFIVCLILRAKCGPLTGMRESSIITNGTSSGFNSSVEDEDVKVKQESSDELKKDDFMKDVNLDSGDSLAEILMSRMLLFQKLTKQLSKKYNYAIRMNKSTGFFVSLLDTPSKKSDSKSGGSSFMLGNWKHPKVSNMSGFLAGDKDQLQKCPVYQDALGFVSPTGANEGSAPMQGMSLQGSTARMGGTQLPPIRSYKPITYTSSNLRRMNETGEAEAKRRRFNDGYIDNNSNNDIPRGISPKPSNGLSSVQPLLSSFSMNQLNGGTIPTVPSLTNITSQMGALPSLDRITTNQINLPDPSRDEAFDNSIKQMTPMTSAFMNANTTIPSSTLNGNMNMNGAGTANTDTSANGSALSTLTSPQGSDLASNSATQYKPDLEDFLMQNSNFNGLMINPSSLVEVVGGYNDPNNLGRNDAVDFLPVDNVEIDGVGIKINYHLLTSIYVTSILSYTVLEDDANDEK

| Sequence | PBM E-score |
| --- | --- |
| AGTGGGGC | -0.178 |
| GAAGTGCA | -0.208 |
| ATCAACCA | -0.171 |
| CCGAGCCG | 0.397 |
| CCGGTTAC | 0.279 |
| ATGATCAA | -0.25 |
| GGTCCTAC | -0.0458 |
| GCTGATCA | -0.0634 |
| TATTGAAA | -0.0987 |
| ATTCTTGA | -0.0148 |
| ATTGCCCG | 0.223 |
| AGCGCTGA | 0.072 |
| CATGGCAG | -0.0806 |
| CGCATCAG | 0.166 |
| CCGCAACA | 0.252 |
| CCGTTCTA | 0.0806 |
| CGCGCCAA | 0.152 |
| TGAAGGAA | -0.247 |
| ACGGGTCG | 0.145 |
| ATATCACC | 0.186 |
| ATTTAATG | 0.112 |
| ACATTGGA | -0.0771 |
| ATGTAGCC | 0.00959 |
| ACGAAGCT | -0.198 |
| AGAGCCGC | 0.161 |

| Sequence | PBM E-score |
| --- | --- |
| AAGCAACG | 0.0189 |
| GAACCGCA | 0.124 |
| AACCTAGA | -0.0855 |
| ATGACTGA | -0.207 |
| CTAGTGGA | -0.196 |
| AATGCTAC | 0.126 |
| CGCATTCA | -0.0417 |
| GTCTCTTA | -0.0167 |
| AGAGGGCA | -0.162 |
| GCGCCCAC | -0.0322 |
| ACGAAACT | -0.11 |
| ATTCGTCC | 0.317 |
| ATATACGA | -0.196 |
| CGCAGCGC | 0.00748 |
| ATAGCGAC | -0.132 |
| ACATGTCT | 0.0344 |
| AAAGTGAG | -0.231 |
| ATCAGGGA | -0.0649 |
| AAGTTGGC | -0.115 |
| ATGCTATG | -0.186 |
| GCTGTTCC | 0.0138 |
| ATCTAGTA | -0.221 |
| GTCCGTAA | 0.323 |
| CCGGAGAA | 0.428 |
| CGTGTGAC | -0.0698 |

| Sequence | PBM E-score |
| --- | --- |
| GCCATCCA | -0.133 |
| GCACTCGA | 0.0397 |
| CCTTGGCG | 0.0195 |
| CGAATAGA | -0.149 |
| ACTTATTA | -0.215 |
| ACCAGTTC | 0.0418 |
| CATAAGCG | 0.0361 |
| GAGCTTAA | 0.0224 |
| CTTCCACC | -0.00109 |
| CCGGTACG | 0.342 |
| AGGAGTAA | 0.0122 |
| AAAGGCTT | -0.073 |
| TGATAGAA | -0.207 |
| AATGTTGA | -0.0613 |
| GATTCTTA | -0.0045 |
| AAGTGCTG | -0.129 |
| ACTCATTC | 0.14 |
| GTATATTA | -0.287 |
| CGCTATCC | 0.099 |
| AGGTCTAC | -0.18 |
| TCTCCAAA | -0.138 |
| AACAACCC | 0.103 |
| CTGTCCTA | -0.201 |
| GATTCGTA | 0.00463 |
| AATTCTGG | -0.289 |

| Sequence | PBM E-score |
| --- | --- |
| CATCGAAG | -0.0438 |
| ATTCGTGC | 0.0213 |
| ACTCTAAG | -0.113 |
| CGATTGCA | 0.0711 |
| ACTAGTCG | -0.0155 |
| CCCCTTAG | -0.0343 |
| AAGGGATC | 0.00434 |
| CGGAGATA | 0.495 |
| AGTCCAGA | -0.122 |
| AGGAGCTA | -0.192 |
| ATCCCGTA | 0.0391 |
| CAGCACCG | 0.253 |
| ACAAATAC | -0.0498 |
| ATCGGGAC | 0.181 |
| CGTCTCCA | -0.014 |
| CCAGACAA | -0.05 |
| TACTACGA | -0.16 |
| TAACCCGA | 0.355 |
| TCCTCTAA | -0.26 |
| TAGGGTGA | -0.116 |
| CTACCCTA | -0.194 |
| CTGAAGAC | -0.0917 |
| CCGAGTAA | 0.245 |
| GGTCACAC | -0.179 |
| ACGACTTA | -0.283 |

| Sequence | PBM E-score |
| --- | --- |
| GACTGCAC | -0.225 |
| GTTTACAA | -0.057 |
| TCCGCCAA | 0.25 |
| CTCATTAC | -0.0367 |
| GGCATGCA | -0.229 |
| ACGGCCTC | -0.00159 |
| ACTTGCTG | -0.256 |
| AACCCTAC | -0.308 |
| ATGGACCC | 0.074 |
| ATTATACG | 0.108 |
| GGCTCGTA | -0.0705 |
| CAGAGTGC | -0.22 |
| AGCCTCTA | -0.234 |
| CCCACCCC | 0.183 |
| ACATCTTG | -0.206 |
| AATAAACG | -4e-05 |
| AGATATTC | -0.207 |
| CATGTGTA | -0.0897 |
| AGGCCAAG | -0.214 |
| AGGAGCAC | -0.163 |
| AACAGGGA | -0.203 |
| CGAATGCA | -0.0874 |
| AAGAGGGG | -0.0367 |
| CCGCGTCG | 0.211 |
| GCTTTAAA | 0.0762 |

| Sequence | PBM E-score |
| --- | --- |
| GATAATAC | 0.0612 |
| ATACATAT | 0.00563 |
| AATGTAAG | -0.192 |
| ACGCAGGA | -0.16 |
| ACCCAATA | -0.0996 |
| AGCGCTGC | -0.164 |
| CAACACAA | -0.161 |
| ATAACATG | -0.0555 |
| GCGCGGCC | 0.155 |
| CATGCGCA | -0.0725 |
| ACGCCCTG | -0.0395 |
| TGGGGTAA | 0.148 |
| AATGGGCT | -0.236 |
| CCGACGCA | 0.122 |
| AACCGGAA | 0.337 |
| ACGAAATC | 0.0404 |
| GAACATGC | -0.18 |
| AGCGATCG | 0.0297 |
| CAATCGCC | 0.0682 |
| ATCAGCAC | -0.213 |
| AATTCAAT | 0.0811 |
| AGTCGAAC | -0.052 |
| CGCAAATA | 0.23 |
| CCCTCACC | -0.0645 |
| GCCGCCAA | -0.0304 |

| Sequence | PBM E-score |
| --- | --- |
| GGGCGTCA | -0.0113 |
| GATTTCAC | 0.0494 |
| CGACTACC | -0.0518 |
| ATGCGACC | 0.207 |
| GCATCCAA | -0.115 |
| CTTGTTAC | -0.0448 |
| ATGGTTAA | -0.0945 |
| AAGGCCTT | -0.332 |
| CCGTCGCA | 0.179 |
| CAATACGG | 0.0664 |
| CATTCGGG | 0.3 |
| AGCAAGTG | -0.295 |
| ACTAGCTC | -0.0932 |
| GCGCGTCA | -0.0915 |
| CCGTCTCA | -0.0767 |
| AATTTATA | -0.0721 |
| CATGAAGG | -0.234 |
| ATTGGAGG | -0.084 |
| GTAGGGGA | -0.143 |
| ATCACCTC | -0.129 |
| AGCGTCCC | 0.0151 |
| ATGCCAAT | -0.257 |
